Assay results: PubChem BioAssay AID686978 (National Center for Advancing Translational Sciences (NCATS), 2013)
About 64,000 (15%) of roughly 420,000 compounds were called active. This list was built around the results that the source calls inconclusive (neither active nor inactive); the mix of calls is not that of the screen. The call rests on the fitted dose curve; in most records, active means well fitted inhibition curve with a large enough effect; inconclusive means small, poorly fitted or top-dose-only effect; inactive means flat fitted curve, though single readings scatter. Potencies of inconclusive entries are left out as doubtful fits. Peptide text beside a SMILES is read from it. * marks the point of attachment. Boc = CC(C)(C)OC(=O)*
On the % scale 0 is the no-effect control and ±100 the full control effect; potency means the concentration at half of the fitted maximal effect; tags describe the fitted curve by direction and shape.

Experiment: qHTS for Inhibitors of human tyrosyl-DNA phosphodiesterase 1 (TDP1): qHTS in cells in absence of CPT; further: nearly all actives have a fitted effect of over 55% in size
Conditions: DT40 Tdp1-/- hTDP1 cells, no CPT, ATP luminescence, 48 h; activity change, negative = growth inhibition: at 46.2 µM (top of the series) unless noted
How it was run: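 Stably hTDP1-transfected Tdp1-null chicken DT40 cells were treated with library compounds minus camptothecin and grown for at least 48 hr at 37 °C, after which cellular ATP was quantified by luminescence.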
In the case of `CCOC(=O)N1CCN(C(=O)c2oc3ccc(S(=O)(=O)N4CCCCC4)cc3c2C)CC1`, the activity change, negative = growth inhibition is reported as inconclusive: -31% [inhibitor].
In the case of `COc1ccc(CC(CN)c2ccccc2)cc1` (configuration not stated), the Potency is reported as inconclusive [inhibitor, full curve, poor fit].
With `Cc1ccn2c(NC3CCCC3)c(-c3ccncc3)nc2c1` the Potency was inconclusive [inhibitor, partial curve].
In the case of `Cn1c(CNc2ccccn2)c(C#N)c2ccccc21`, the Potency is reported as inconclusive [inhibitor, single point].
For `CCC(CC)C(=O)Nc1cccc(C(=O)NCc2ccco2)c1`, the Potency was inconclusive [inhibitor, single point].
In the case of `Oc1ccccc1-c1cc(-c2ccccc2Cl)[nH]n1`, the Potency is reported as inconclusive [inhibitor, partial curve].
For `COc1ccc(-c2cc(NC(C)=O)c3ncc(-c4ccc(OC)c(OC)c4)n3c2)cc1OC`, the Potency was active: 14.6 µM.
With `CN(C)c1ccc(-c2nnc(SCC3CCCO3)n2C)cc1` (configuration not stated) the Potency was inconclusive [inhibitor, single point].
In the case of `O=C(NCc1ccncc1)c1csc([C@@H]2O[C@H](CO)[C@@H](O)[C@H]2O)n1`, the Potency is reported as active: 2.31 µM.
In the case of `NC(=O)c1cccc(Nc2nc(C(N)COCc3ccccc3)cs2)n1` (configuration not stated), the Potency is reported as inconclusive [inhibitor, single point].
With `Cc1ccc(S(=O)(=O)N(Cc2c(F)cccc2Cl)C(=O)N2CCN(C)CC2)cc1` the “activity change, negative = growth inhibition” value was inactive: -2.82%.
With `Nc1ccccc1C(=O)NC12CC3CC(CC(C3)C1)C2` the Potency was inconclusive [inhibitor, single point].
In the case of `C#CCN1C(=O)C(O)(c2c(C)[nH]c3ccccc23)c2ccccc21` (configuration not stated), the Potency is reported as active: 3.26 µM.
With `O=C(C1CCCN(Cc2cc(Br)ccc2O)C1)N1CCCCC1` (configuration not stated) the Potency was inconclusive [inhibitor, single point].
With `N=C1/C(=C/c2cccn2Cc2ccc(F)cc2)C(=O)N=C2SC=CN12` the “activity change, negative = growth inhibition” value was inactive: -16.8%.
For `CCN(C)C1CN(Cc2cn(Cc3cccc(Cl)c3)nn2)S(=O)(=O)C1` (configuration not stated), the “activity change, negative = growth inhibition” value was inactive: -23.7%.
With `C/C(CC(=O)NC1CCCC1)=N\NC(=O)c1ccc([N+](=O)[O-])c(Cl)c1` the “activity change, negative = growth inhibition” value was inactive: -14.7%.
For `COc1ccc2c(c1)c1c(c(=O)n(CCc3ccccc3)c(=O)n1Cc1cccc(F)c1)n2C`, the “activity change, negative = growth inhibition” value was inactive: -2.97%.
With `CCSc1nc2ccccc2c(OCc2ccc(Cl)cc2)c1C(=O)OC` the Potency was inconclusive [inhibitor, single point].
For `COc1ccccc1NC(=S)NC1CC2CCC1C2` (configuration not stated), the Potency was inconclusive [inhibitor, partial curve].
With `Cc1ccc(NC(=O)Nc2ccccc2C(=O)NCc2ccccc2)cc1` the activity change, negative = growth inhibition was inconclusive: -31.4% [inhibitor].
For `COc1cc2nc(SCC(=O)NCCc3ccccc3)n(Cc3ccco3)c(=O)c2cc1OC`, the “activity change, negative = growth inhibition” value was inactive: -5.46%.
For `CCc1ccccc1NC(=O)c1ccc2c(c1)CCCN2S(C)(=O)=O`, the “activity change, negative = growth inhibition” value was inactive: -22%.
With `C=C(C)c1cccc(C(C)(C)NC(=O)N2CCCC(C)C2)c1` (configuration not stated) the Potency was inconclusive [inhibitor, single point].
In the case of `CCOc1cc(OCC)cc(C(=O)N2CCC[C@H]2C(=O)N2CCC[C@H]2C(=O)NCc2cccc(OC)c2)c1`, the Potency is reported as inconclusive [inhibitor, partial curve, poor fit].
With `Cc1ccc(CN2C(=O)C(CC(C)C)Nc3ncnc(N4CCN(c5ccccn5)CC4)c32)cc1` (configuration not stated) the Potency was active: 18.4 µM.
For `CCCOC(=O)c1ccc(Oc2cn[nH]c2-c2ccc(OCC(=O)NN)cc2O)cc1`, the “activity change, negative = growth inhibition” value was inactive: -6.99%.
With `COC(=O)c1cc(C(=O)c2ccc(Cl)cc2Cl)cn1C` the Potency was inconclusive [inhibitor, single point].
With `CC(C)CN(CCNC(=O)CCN1N=C(c2ccccc2)CCC1=O)CC(C)C` the “activity change, negative = growth inhibition” value was inactive: -19.8%.
With `Cc1ccsc1C(=O)N1CCN(c2ncc(C(F)(F)F)cc2Cl)CC1` the Potency was active: 14.6 µM.
With `Cc1ccccc1NC(=O)c1ccc(OCc2c(C)noc2C)cc1` the Potency was inconclusive [inhibitor, single point].
For `CN(C)C(=O)CSc1nc2ccccc2n1Cc1ccccc1`, the Potency was inconclusive [inhibitor, single point].
In the case of `CC(C)(C)NCc1cc(Cl)ccc1OCc1cccs1`, the Potency is reported as inconclusive [inhibitor, single point].
In the case of `Cc1onc(-c2ccc(Cl)cc2)c1-c1ccnn1S(=O)(=O)c1ccc(Cl)cc1`, the Potency is reported as active: 16.4 µM.
In the case of `NS(=O)(=O)c1ccc(CNC(=O)Cc2ccsc2)cc1`, the “activity change, negative = growth inhibition” value is reported as inactive: 1.7%.
With `CCc1ccccc1N1C(=O)[C@@H]2Cc3ccccc3CN2C1=O` the Potency was inconclusive [inhibitor, partial curve, poor fit].
For `Cn1cnnc1SCC(=O)NNC(=O)COc1ccc(Br)cc1`, the “activity change, negative = growth inhibition” value was inactive: 0.551%.
With `NC(=O)c1c(NC(=O)CSc2nc(N)cc(=O)[nH]2)sc2c1CCCC2` the Potency was inconclusive [inhibitor, single point].
For `COc1ccc(Cn2c(CO)cnc2SCc2ccc(C)cc2)cc1`, the Potency was inconclusive [inhibitor, single point].
In the case of `CC(=O)Nc1ccc2ccccc2c1[N+](=O)[O-]`, the “activity change, negative = growth inhibition” value is reported as inactive: -15.2%.
In the case of `CCCCn1c(=O)nc2n(-c3ccc(Cl)cc3)c3ccccc3cc-2c1=O`, the “activity change, negative = growth inhibition” value is reported as inactive: -23.4%.
With `CSc1ccc(C2NN=C(c3ccccc3)S2)cc1` (configuration not stated) the Potency was inconclusive [inhibitor, partial curve].
With `CCOCCCNC(=O)c1ccc2c(c1)ncn2-c1ccccc1OC` the Potency was inconclusive [inhibitor, single point].
With `COc1ccc(NC(=O)c2cc(-c3ccc(F)cc3OC)n[nH]2)cc1OC` the Potency was inconclusive [inhibitor, partial curve].
In the case of `COc1ccc(CCNC(=O)CN(c2ccccc2)S(=O)(=O)N(C)C)cc1OC`, the “activity change, negative = growth inhibition” value is reported as inactive: -9.43%.
For `COc1ccc(/C=C/C(=O)OCC(=O)NC2CCCCCC2)cc1`, the Potency was inconclusive [inhibitor, single point].
With `CCc1cc(/C(Cc2ccc3ccccc3n2)=N\O)c(O)cc1O` the Potency was inconclusive [inhibitor, single point].
For `N#Cc1ccc(OCC(=O)Nc2cccc(S(=O)(=O)NC3=NCCCCC3)c2)cc1`, the Potency was inconclusive [inhibitor, single point].
For `COc1ccc(-c2cnn3c(N)c(S(=O)(=O)c4ccccc4)cnc23)cc1`, the Potency was inconclusive [inhibitor, single point].
In the case of `Cc1ccc(Nc2nc3nonc3[nH]c2=O)cc1`, the “activity change, negative = growth inhibition” value is reported as inactive: -9.97%.
With `Nc1ncnc2c1ncn2[C@@H]1O[C@H](COP(=O)(O)OP(=O)(O)CP(=O)(O)O)[C@@H](O)[C@H]1O` the “activity change, negative = growth inhibition” value was inactive: -8.25%.
In the case of `CCC(C)C(NC(=O)C(C)NC(=O)CNC(=O)OC(C)(C)C)C(N)=O` (stereo not drawn) (Boc-Gly-Ala-Ile-NH2; configuration not given here), the activity change, negative = growth inhibition is reported as inconclusive: -31.4% [inhibitor].
With `O=C(COC(=O)CCc1nc2ccccc2c(=O)[nH]1)Nc1ccc(Cl)cn1` the Potency was inconclusive [inhibitor, single point].
For `COc1ccccc1-c1nnc(NC(C)=O)s1`, the “activity change, negative = growth inhibition” value was inactive: -20.3%.
In the case of `COc1ccccc1NS(=O)(=O)c1cccc(C(=O)NCC(c2ccco2)N2CCCCC2)c1` (configuration not stated), the Potency is reported as inconclusive [inhibitor, single point].
In the case of `COc1cccc(C(NC(C)=O)c2nc(-c3ccc4ccccc4c3)cs2)c1` (configuration not stated), the Potency is reported as inconclusive [inhibitor, single point].
With `COc1ccccc1CCC(=O)OCC(=O)Nc1ccc(S(N)(=O)=O)cc1` the “activity change, negative = growth inhibition” value was inactive: -8.85%.
For `Oc1cc(-c2nc3ccccc3s2)cc2c1OCCN(Cc1cccn1-c1nccs1)C2`, the Potency was inconclusive [inhibitor, single point].
For `Cc1nc2cc(OC3(C)CCN(Cc4ccc(OC(F)(F)F)cc4)C3)ccc2s1` (configuration not stated), the Potency was inconclusive [inhibitor, single point].
For `CC(/C=C/c1ccc2c(c1)OCO2)=N/NC(=O)c1cccnc1`, the Potency was inconclusive [inhibitor, single point].
With `CC(=O)N1CCC(N(CCCOC(C)C)C(=O)Nc2ccc(C)c(C)c2)CC1` the Potency was inconclusive [inhibitor, single point].
In the case of `C/C(=N\NC(=S)NCc1ccccc1)c1ccc(Br)cc1`, the Potency is reported as inconclusive [inhibitor, single point].
For `Cc1ccc(NC(=O)c2oc3ccc(S(=O)(=O)N4CCC5(CC4)OCCO5)cc3c2C)cc1Cl`, the “activity change, negative = growth inhibition” value was inactive: -15.5%.
For `CCOc1cc(-c2nc(-c3ccccc3OC)no2)cc(OCC)c1OCC`, the Potency was active: 29.1 µM.
In the case of `COCCN(Cc1ccco1)C(=O)C1CCCN(c2ncnc3c2nc2n3CCCCC2)C1` (configuration not stated), the Potency is reported as inconclusive [inhibitor, partial curve].
With `CCc1cccc(C)c1NC(=O)CSc1nc2ccccc2nc1Cc1ccccc1` the Potency was active: 16.4 µM.
In the case of `O=C(Nc1ccccc1N1CCOCC1)c1ccc(N2CCOCC2)c([N+](=O)[O-])c1`, the Potency is reported as inconclusive [inhibitor, single point].
For `O=C(CN1C(=O)CCSc2ccc(S(=O)(=O)N3CCCC3)cc21)Nc1cccc(F)c1`, the Potency was inconclusive [inhibitor, full curve].
In the case of `O=C(CNC(=O)c1ccc(N2C(=O)c3ccccc3C2=O)cc1)OCC(=O)c1cccc2ccccc12`, the “activity change, negative = growth inhibition” value is reported as inactive: -13.2%.
With `COc1ccc(-c2nc(C#N)c(N3CCN(c4ccccc4)CC3)o2)cc1` the “activity change, negative = growth inhibition” value was inactive: -28.9%.
In the case of `COc1ccc(C(CC(=O)Nc2ccc(Cl)cc2F)NC(=O)C(F)(F)F)cc1` (configuration not stated), the Potency is reported as inconclusive [inhibitor, partial curve].
With `Cc1ccc(C(c2nnnn2C2CCCCC2)N(C)C2CCCCC2)cc1` (configuration not stated) the Potency was active: 23.1 µM.
